# Laboratory results reported in PubChem BioAssay AID1645882 (National Center for Advancing Translational Sciences (NCATS), 2021).
# Among all 16,000 compounds or so, about 120 (0.75%) were called active. Inconclusive results (about 4%) are left out. Calls follow the shape of the dose curve; as a rule, active = well fitted inhibition curve with a large enough effect; inconclusive = small, poorly fitted or top-dose-only effect; inactive = no such curve, though single readings can be large or run the other way. The list shows a part of the results.
# Target: Rap guanine nucleotide exchange factor 3 (Homo sapiens) (UniProt O95398)
# Sequence of UniProt O95398 (O95398 whole entry, looked up): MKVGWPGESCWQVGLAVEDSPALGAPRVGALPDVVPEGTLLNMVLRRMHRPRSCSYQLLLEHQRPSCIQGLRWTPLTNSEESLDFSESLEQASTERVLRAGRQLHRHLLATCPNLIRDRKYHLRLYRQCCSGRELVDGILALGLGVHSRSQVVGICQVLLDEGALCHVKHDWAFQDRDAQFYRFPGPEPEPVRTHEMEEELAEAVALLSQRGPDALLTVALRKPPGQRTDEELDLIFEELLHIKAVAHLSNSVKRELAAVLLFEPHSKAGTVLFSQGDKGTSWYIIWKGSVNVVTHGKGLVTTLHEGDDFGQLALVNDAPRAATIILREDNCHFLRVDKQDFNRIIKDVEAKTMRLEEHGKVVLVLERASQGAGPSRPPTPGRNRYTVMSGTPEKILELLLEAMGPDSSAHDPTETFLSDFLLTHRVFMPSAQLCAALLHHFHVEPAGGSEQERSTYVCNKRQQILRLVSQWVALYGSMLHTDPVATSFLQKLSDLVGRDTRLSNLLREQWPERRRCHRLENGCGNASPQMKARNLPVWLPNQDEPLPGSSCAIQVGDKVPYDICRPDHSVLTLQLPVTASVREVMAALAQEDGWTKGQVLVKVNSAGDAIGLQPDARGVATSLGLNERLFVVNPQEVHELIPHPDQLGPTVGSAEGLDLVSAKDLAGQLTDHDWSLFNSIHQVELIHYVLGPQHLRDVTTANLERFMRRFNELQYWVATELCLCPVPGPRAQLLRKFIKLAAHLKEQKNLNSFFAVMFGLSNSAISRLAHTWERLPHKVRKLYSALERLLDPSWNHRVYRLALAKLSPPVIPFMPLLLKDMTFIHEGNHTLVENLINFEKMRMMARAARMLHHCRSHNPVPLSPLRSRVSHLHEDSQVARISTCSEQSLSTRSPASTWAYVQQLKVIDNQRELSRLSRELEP
# Assay: Validation qHTS for antagonist of cAMP-regulated guanine nucleotide exchange factor 3 (EPAC1); also: nearly all actives have a fitted effect of over 75% in size
# Details: EPAC1 Rap1B-BODIPY-GDP exchange, fluorescence; series mostly up to 150 µM; activity change, negative = inhibition: at the top concentration
# Procedure, shortened: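 EPAC1 (100 nM) mixed with 250 nM RAP1B-BODIPY-GDP and 50 uM GDP; compounds in concentration series, 5 min at room temperature. Fluorescence (ex 480/em 540 nm) read every 5 min for 30 min; normalized to ATA control and DMSO.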
row,Structure (SMILES),"activity change, negative = inhibition"
1,CCOC(=O)OCC/C(SC(=O)OCC)=C(\C)N(C=O)Cc1cnc(C)nc1N,inactive: 12%
2,C[C@H](N)[C@H](O)c1cccc(O)c1,inactive: 12% [at 75.8 µM]
3,COc1ccc(C(=O)/C(Br)=C\C(=O)O)cc1,inactive: 14.6%
4,COC(=O)c1ccccc1NC(=O)c1ccc(F)cc1,inactive: 6.74%
5,COc1cccc(-c2ccc3ncnc(N4CCOCC4)c3c2)c1,inactive: 1.91%
6,CC(=O)[C@@]1(O)CC[C@H]2[C@@H]3C[C@H](C)C4=CC(=O)CC[C@]4(C)[C@H]3CC[C@@]21C,inactive: 15.6%
7,O=C(CO)[C@@H](O)[C@H](O)[C@H](O)CO,inactive: 25.1%
8,CN=C(NC#N)Nc1ccc(C2=NNC(=O)CC2C)cc1 (stereo not given),inactive
9,NCC1O[C@@H](O[C@H]2C(O)C(O[C@@H]3C(O[C@H]4OC(CO)C(O)C(O)C4N)C(N)CC(N)[C@H]3O)O[C@@H]2CO)C(N)C(O)C1O (stereo not given in full),inactive: 20.7%
10,COc1ccc(NC(=O)N2CC3(CCN(C(=O)c4ccco4)CC3)C2)cc1,inactive: -3.89%
11,O=c1cnc2cnc(Oc3cccc(Cl)c3)nc2n1CCc1ccccc1,inactive: -9.86%
12,Cc1ccc(CN2[C@@H](Cc3ccccc3)C(=O)CS2(=O)=O)cc1,inactive: -19.9%
13,COc1ccc2[nH]cc(CCNc3ccnc(-c4cccnc4)n3)c2c1,inactive: 0.931%
14,COc1ccc(C(=O)N2CCC3(CCCN(C(=O)Nc4cccc(C#N)c4)C3)CC2)cc1,inactive: 8.66%
15,Cc1ccccc1OCC(O)CO (stereo not given),inactive: 26.6%
16,CCCCCCCCCCCCCCCCCCc1ccc(C(=O)/C=C\C(=O)O)cc1,inactive: 11.4%
17,S=c1ccss1,inactive: 21.3%
18,CC1=C(CC(=O)O)c2cc(F)ccc2/C1=C\c1ccc(S(C)(=O)=O)cc1,inactive: -2.16% [at 75.8 µM]
19,N[C@H](C(=O)O)c1ccc(C(=O)O)cc1,inactive
20,NC(N)=NC(=O)c1nc(Cl)c(N2CCCCCC2)nc1N,inactive: 8.17% [at 75.8 µM]
21,COC(=O)CC1[C@@]2(C)C[C@@]34OC5(C)OC6(CC[C@@]7(C)C(c8ccoc8)OC(=O)C(C(C)=O)C7[C@]6(O5)C(O)[C@@]3(O)C2O)[C@]14C (stereo not given in full),inactive: 29.5%
22,CS(=O)(=O)c1ccc(-c2cc(Br)sc2-c2ccc(F)cc2)cc1,inactive: -3.98%
23,c1ccc2c(c1)CN1CCCC1=N2,inactive
24,O=C1CN(/N=C/c2ccc([N+](=O)[O-])o2)C(=O)N1,inactive
25,CC(C)C[C@@H](CSc1ccccc1)N1CCN(CCc2ccccc2)CCC1=O,inactive: -9.65%

row,Structure (SMILES),"activity change, negative = inhibition"
1,CC(O)(COc1ccccc1)c1ccc2c(c1)CN(Cc1cccc3ncccc13)CCO2 (stereo not given),inactive: -4.96%
2,CC(C)=CCC/C(C)=C/CC/C(C)=C/CO,inactive
3,Cc1nc2sccn2c(=O)c1CCN1CCC(=C(c2ccccc2)c2ccc(F)cc2)CC1,inactive: 5.28% [at 75.8 µM]
4,CC(=O)N1CCC[C@@]2(CCN(Cc3ccc(C#N)cc3)C2)C1,inactive: 16.2%
5,CC(C)(C)C1CCC(=O)N(CCOc2ccccc2)CC1 (stereo not given),inactive: -19.7%
6,Cc1c(C(=O)O)c(O)cc2c1C(=O)c1c(O)c([C@@H]3O[C@H](CO)[C@@H](O)[C@H](O)[C@H]3O)c(O)c(O)c1C2=O,inactive: 7.12%
7,COc1c(-c2ccccc2)oc2c(ccc3occc32)c1=O,inactive: -22.7%
8,Cc1ccc(CN2[C@@H](CC3CCCCC3)COCCS2(=O)=O)cc1,inactive: 8.27%
9,Cc1cc(C)c2nccc(/C=C/c3ccc(N(C)C)cc3)c2c1,inactive: 20.2%
10,COc1ccc(C(=O)N2CCC[C@@]3(CCN(C(=O)Nc4cccc(C#N)c4)C3)C2)cc1,inactive: 22%
11,O=C1C[C@@H]2c3c(cccc3CN1Cc1ccccc1)C[C@@H](O)[C@H]2O,inactive: 5.54%
12,NC(=NCCCCCCN=C(N)/N=C(\N)Nc1ccc(Cl)cc1)/N=C(\N)Nc1ccc(Cl)cc1,inactive
13,CC(C)(C)C(=O)C(Oc1ccc(Cl)cc1)n1ccnc1 (stereo not given),inactive: -0.509%
14,C1=C(CN2CCOCC2)COc2c1cccc2OC[C@@H]1CNCCO1,inactive: -7.68%
15,Oc1cc(O)cc(O)c1,inactive: 25.1%
16,O=S(=O)(c1ccccc1)N1CCC2(CCCN(c3ncccn3)C2)CC1,inactive: -10.3%
17,COc1ccc(NC(=O)N2CC3(CCN(C(=O)c4csnn4)CC3)C2)cc1,inactive: 5.55%
18,CCCC[C@H]1COCCS(=O)(=O)N1Cc1cccc([N+](=O)[O-])c1,inactive: -3.84%
19,Nc1ncnc2c1ncn2[C@@H]1O[C@H](COP(=O)(O)OP(=O)(O)O)[C@@H](O)[C@H]1O,inactive
20,CC1CCC(C(C)C)[C@H](OC(=O)c2ccccc2)C1 (stereo not given in full),inactive: 5.08%
21,c1csc(CNc2ncnc3ccc(-c4ccc5c(c4)OCO5)cc23)c1,inactive: 17.5%
22,O=c1cc(-c2ccccc2)oc2cc(O)cc(O)c12,inactive
23,CC1CN(CCC(=O)NC(c2cccnc2)C(F)(F)F)Cc2cc(Cl)ccc2O1 (stereo not given),inactive: -12.1%
24,CCOC(=O)C[C@H]1c2cc(F)ccc2S(=O)(=O)N1C1CCCC1,inactive: 10.4%
25,CCN(Cc1ccncc1)Cc1ccc2c(c1)CN(C(=O)c1cccc3c(C)c(C)[nH]c13)CCO2,inactive: 10.4%
